Measured values reported in the supplement of paper PMC4996465.
Viability of KB3-1 and Nalm-6 cells after 48 h of drug alone (CellTiter-Glo), 11 doses over about 4.5 log units. % of DMSO wells, lower = more cell loss; AC50 from the fitted curve, lower = more potent. No active / inactive call. Nalm-6 was screened in two runs. AC50 is listed only for well-fitted inhibitory curves. KB3-1 is a HeLa-derived carcinoma line, Nalm-6 a B-cell precursor leukaemia line.

Columns and labels:
KB3-1 = test: viability (% of DMSO control); higher = more viable cells
Protocol: (§1)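 Eleven-dose screen of the NCATS MIPE 3 library on cells without co-treatment; CellTiter-Glo after 48 h, as % of DMSO wells.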

Nalm-6 = test: as above
Protocol: as §1

O=C(O)[C@@H](c1ccc(OCc2ccc3ccccc3n2)cc1)C1CCCC1 [Veliflapon]
Settings | viability [%]
KB3-1, 0.00078 µM | 103
KB3-1, 0.00234 µM | 103
KB3-1, 0.00702 µM | 102
KB3-1, 0.0211 µM | 106
KB3-1, 0.0632 µM | 59.6
KB3-1, 0.19 µM | 102
KB3-1, 0.569 µM | 107
KB3-1, 1.71 µM | 110
KB3-1, 5.12 µM | 105
KB3-1, 15.4 µM | 105
KB3-1, 46.1 µM | 90.7
Nalm-6, run: 1, 0.00078 µM | 87.3
Nalm-6, run: 1, 0.00234 µM | 83.1
Nalm-6, run: 1, 0.00702 µM | 102
Nalm-6, run: 1, 0.0211 µM | 116
Nalm-6, run: 1, 0.0632 µM | 114
Nalm-6, run: 1, 0.19 µM | 119
Nalm-6, run: 1, 0.569 µM | 112
Nalm-6, run: 1, 1.71 µM | 127
Nalm-6, run: 1, 5.12 µM | 109
Nalm-6, run: 1, 15.4 µM | 110
Nalm-6, run: 1, 46.1 µM | 88.3
Nalm-6, run: 2, 0.00078 µM | 103
Nalm-6, run: 2, 0.00234 µM | 104
Nalm-6, run: 2, 0.00702 µM | 104
Nalm-6, run: 2, 0.0211 µM | 103
Nalm-6, run: 2, 0.0632 µM | 102
Nalm-6, run: 2, 0.19 µM | 107
Nalm-6, run: 2, 0.569 µM | 108
Nalm-6, run: 2, 1.71 µM | 115
Nalm-6, run: 2, 5.12 µM | 108
Nalm-6, run: 2, 15.4 µM | 106
Nalm-6, run: 2, 46.1 µM | 99.7

CCOC(=O)\C1=C\[C@@]2(CC)CCCN3CCC4=C([C@@H]23)[N]1C5=C4C=CC=C5 [Vinpocetine]
Settings | viability [%]
KB3-1, 0.000445 µM | 95.8
KB3-1, 0.00133 µM | 96.3
KB3-1, 0.004 µM | 98.9
KB3-1, 0.012 µM | 99
KB3-1, 0.036 µM | 97
KB3-1, 0.108 µM | 99.8
KB3-1, 0.324 µM | 96.8
KB3-1, 0.973 µM | 95.3
KB3-1, 2.92 µM | 101
KB3-1, 8.76 µM | 97
KB3-1, 26.3 µM | 87.1
Nalm-6, run: 1, 0.000445 µM | 87.4
Nalm-6, run: 1, 0.00133 µM | 93.8
Nalm-6, run: 1, 0.004 µM | 91
Nalm-6, run: 1, 0.012 µM | 103
Nalm-6, run: 1, 0.036 µM | 103
Nalm-6, run: 1, 0.108 µM | 102
Nalm-6, run: 1, 0.324 µM | 102
Nalm-6, run: 1, 0.973 µM | 110
Nalm-6, run: 1, 2.92 µM | 108
Nalm-6, run: 1, 8.76 µM | 107
Nalm-6, run: 1, 26.3 µM | 88.2
Nalm-6, run: 2, 0.000445 µM | 95.3
Nalm-6, run: 2, 0.00133 µM | 96.2
Nalm-6, run: 2, 0.004 µM | 97.6
Nalm-6, run: 2, 0.012 µM | 101
Nalm-6, run: 2, 0.036 µM | 99.8
Nalm-6, run: 2, 0.108 µM | 95.3
Nalm-6, run: 2, 0.324 µM | 108
Nalm-6, run: 2, 0.973 µM | 101
Nalm-6, run: 2, 2.92 µM | 98.1
Nalm-6, run: 2, 8.76 µM | 106
Nalm-6, run: 2, 26.3 µM | 101

CS(=O)(=O)c1ccc(C(=O)Nc2ccc(Cl)c(-c3ccccn3)c2)c(Cl)c1 [Vismodegib]
Settings | viability [%]
KB3-1, 0.00078 µM | 96.7
KB3-1, 0.00234 µM | 96.1
KB3-1, 0.00702 µM | 92.8
KB3-1, 0.0211 µM | 95.1
KB3-1, 0.0632 µM | 96.2
KB3-1, 0.19 µM | 103
KB3-1, 0.569 µM | 93.7
KB3-1, 1.71 µM | 104
KB3-1, 5.12 µM | 96.1
KB3-1, 15.4 µM | 98.3
KB3-1, 46.1 µM | 86.4
Nalm-6, run: 1, 0.00078 µM | 94.8
Nalm-6, run: 1, 0.00234 µM | 101
Nalm-6, run: 1, 0.00702 µM | 103
Nalm-6, run: 1, 0.0211 µM | 102
Nalm-6, run: 1, 0.0632 µM | 110
Nalm-6, run: 1, 0.19 µM | 100
Nalm-6, run: 1, 0.569 µM | 110
Nalm-6, run: 1, 1.71 µM | 108
Nalm-6, run: 1, 5.12 µM | 113
Nalm-6, run: 1, 15.4 µM | 115
Nalm-6, run: 1, 46.1 µM | 97.5
Nalm-6, run: 2, 0.00078 µM | 104
Nalm-6, run: 2, 0.00234 µM | 89.4
Nalm-6, run: 2, 0.00702 µM | 100
Nalm-6, run: 2, 0.0211 µM | 99.3
Nalm-6, run: 2, 0.0632 µM | 105
Nalm-6, run: 2, 0.19 µM | 110
Nalm-6, run: 2, 0.569 µM | 99.1
Nalm-6, run: 2, 1.71 µM | 107
Nalm-6, run: 2, 5.12 µM | 108
Nalm-6, run: 2, 15.4 µM | 114
Nalm-6, run: 2, 46.1 µM | 102

COc1nc(C)cnc1NS(=O)(=O)c1cccnc1-c1ccc(-c2nnco2)cc1 [Zibotentan]
Settings | viability [%]
KB3-1, 0.00078 µM | 108
KB3-1, 0.00234 µM | 109
KB3-1, 0.00702 µM | 104
KB3-1, 0.0211 µM | 109
KB3-1, 0.0632 µM | 110
KB3-1, 0.19 µM | 107
KB3-1, 0.569 µM | 107
KB3-1, 1.71 µM | 105
KB3-1, 5.12 µM | 97
KB3-1, 15.4 µM | 101
KB3-1, 46.1 µM | 98.1
Nalm-6, run: 1, 0.00078 µM | 126
Nalm-6, run: 1, 0.00234 µM | 117
Nalm-6, run: 1, 0.00702 µM | 129
Nalm-6, run: 1, 0.0211 µM | 125
Nalm-6, run: 1, 0.0632 µM | 130
Nalm-6, run: 1, 0.19 µM | 129
Nalm-6, run: 1, 0.569 µM | 128
Nalm-6, run: 1, 1.71 µM | 129
Nalm-6, run: 1, 5.12 µM | 118
Nalm-6, run: 1, 15.4 µM | 112
Nalm-6, run: 1, 46.1 µM | 105
Nalm-6, run: 2, 0.00078 µM | 106
Nalm-6, run: 2, 0.00234 µM | 105
Nalm-6, run: 2, 0.00702 µM | 104
Nalm-6, run: 2, 0.0211 µM | 107
Nalm-6, run: 2, 0.0632 µM | 107
Nalm-6, run: 2, 0.19 µM | 109
Nalm-6, run: 2, 0.569 µM | 107
Nalm-6, run: 2, 1.71 µM | 107
Nalm-6, run: 2, 5.12 µM | 101
Nalm-6, run: 2, 15.4 µM | 103
Nalm-6, run: 2, 46.1 µM | 98.9

CC(c1cc2ccccc2s1)N(O)C(N)=O (stereo not drawn) [Zileuton]
Settings | viability [%]
KB3-1, 0.00156 µM | 94.1
KB3-1, 0.00468 µM | 97.3
KB3-1, 0.014 µM | 103
KB3-1, 0.0421 µM | 102
KB3-1, 0.126 µM | 103
KB3-1, 0.379 µM | 104
KB3-1, 1.14 µM | 107
KB3-1, 3.41 µM | 109
KB3-1, 10.2 µM | 110
KB3-1, 30.7 µM | 104
KB3-1, 92.2 µM | 97.5
Nalm-6, run: 1, 0.00156 µM | 81.8
Nalm-6, run: 1, 0.00468 µM | 99
Nalm-6, run: 1, 0.014 µM | 99
Nalm-6, run: 1, 0.0421 µM | 105
Nalm-6, run: 1, 0.126 µM | 110
Nalm-6, run: 1, 0.379 µM | 104
Nalm-6, run: 1, 1.14 µM | 107
Nalm-6, run: 1, 3.41 µM | 112
Nalm-6, run: 1, 10.2 µM | 110
Nalm-6, run: 1, 30.7 µM | 97.3
Nalm-6, run: 1, 92.2 µM | 88.4
Nalm-6, run: 2, 0.00156 µM | 90.2
Nalm-6, run: 2, 0.00468 µM | 96
Nalm-6, run: 2, 0.014 µM | 92.3
Nalm-6, run: 2, 0.0421 µM | 94.9
Nalm-6, run: 2, 0.126 µM | 102
Nalm-6, run: 2, 0.379 µM | 102
Nalm-6, run: 2, 1.14 µM | 103
Nalm-6, run: 2, 3.41 µM | 104
Nalm-6, run: 2, 10.2 µM | 106
Nalm-6, run: 2, 30.7 µM | 93.6
Nalm-6, run: 2, 92.2 µM | 88.3

CC/C=C\C[C@H]1C(=O)CC[C@@H]1CC(=O)OC [methyl jasmonate]
Settings | viability [%]
KB3-1, 0.00078 µM | 107
KB3-1, 0.00234 µM | 105
KB3-1, 0.00702 µM | 103
KB3-1, 0.0211 µM | 104
KB3-1, 0.0632 µM | 108
KB3-1, 0.19 µM | 109
KB3-1, 0.569 µM | 105
KB3-1, 1.71 µM | 103
KB3-1, 5.12 µM | 99.5
KB3-1, 15.4 µM | 104
KB3-1, 46.1 µM | 106
Nalm-6, run: 1, 0.00078 µM | 100
Nalm-6, run: 1, 0.00234 µM | 111
Nalm-6, run: 1, 0.00702 µM | 108
Nalm-6, run: 1, 0.0211 µM | 109
Nalm-6, run: 1, 0.0632 µM | 121
Nalm-6, run: 1, 0.19 µM | 117
Nalm-6, run: 1, 0.569 µM | 117
Nalm-6, run: 1, 1.71 µM | 114
Nalm-6, run: 1, 5.12 µM | 121
Nalm-6, run: 1, 15.4 µM | 115
Nalm-6, run: 1, 46.1 µM | 104
Nalm-6, run: 2, 0.00078 µM | 107
Nalm-6, run: 2, 0.00234 µM | 108
Nalm-6, run: 2, 0.00702 µM | 103
Nalm-6, run: 2, 0.0211 µM | 106
Nalm-6, run: 2, 0.0632 µM | 112
Nalm-6, run: 2, 0.19 µM | 109
Nalm-6, run: 2, 0.569 µM | 103
Nalm-6, run: 2, 1.71 µM | 102
Nalm-6, run: 2, 5.12 µM | 105
Nalm-6, run: 2, 15.4 µM | 104
Nalm-6, run: 2, 46.1 µM | 101
